# Data: PubChem BioAssay AID2112 (National Center for Advancing Translational Sciences (NCATS), 2009)
# Out of some 240,000 compounds screened, about 15 (0.006%) were called active. Inconclusive results, whose numbers are uncertain, are shown with a selection of clear calls. The call rests on the fitted dose curve; in most records, active means well fitted inhibition curve with a large enough effect; inconclusive means small, poorly fitted or top-dose-only effect, or effect the other way, or another doubt; inactive means no such curve, though single readings can be large or run the other way. Potencies of inconclusive entries are left out as doubtful fits.
# Target: Lysosomal alpha-glucosidase (Homo sapiens) (UniProt P10253)
# Experiment: qHTS Assay for Inhibitors and Activators of Human alpha-Glucosidase From Spleen Homogenate;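 on activity change, negative = inhibition: 0% = enzyme with vehicle and -100% = no enzyme basal signal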
# Conditions: 4-MU-alpha-glucoside fluorescence; series mostly up to 79.9 µM; activity change, negative = inhibition: at the top concentration
# Method in brief: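 Human spleen homogenate (1 ug) with 4-methylumbelliferyl-alpha-D-glucopyranoside (1 mM final) in 50 mM citrate/phosphate pH 5.0, 0.01% Tween-20; 40 min at 37 C. Stopped at pH 10; 4-MU fluorescence Ex 365/Em 440 nm; AC50 by Hill fit.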
# Potency means the concentration at half of the fitted maximal effect; tags describe the fitted curve by direction and shape.
Compound,Potency,"activity change, negative = inhibition"
O=C(Nc1ccncc1)c1ccc2c(c1)C(=O)N(C1CCCCC1)C2=O,"inconclusive [inhibitor, full curve, poor fit]",
CCc1c(C)c2cc(Cl)c(O)c(CN3CCCCC3)c2oc1=O,"inconclusive [activator, partial curve]",
CCOCCCn1c(=NC(C)=O)c(C(=O)OCC)cc2c(=O)n3ccccc3nc21,"inconclusive [activator, partial curve]",
c1cnc(NC2CCCCCC2)nc1,"inconclusive [inhibitor, full curve, poor fit]",
CN1CCN(c2ccc3nccnc3c2)CC1,"inconclusive [inhibitor, single point]",
COc1ccc(OC)c(Nc2ncnc3c2cnn3-c2ccccc2)c1,"inconclusive [inhibitor, single point]",
O=C(NC1CC1)C1=C[C@@H](c2csc3ccccc23)C[C@@H](OCCCCO)O1,,inactive: 1.77%
COc1ccc(-c2cc(=O)c(C(=O)c3ccc(C)cc3)n[nH]2)cc1,"inconclusive [inhibitor, single point]",
O=C(NCc1cccs1)Nc1cccs1,,inactive: -4.59%
Cn1c(SCC(=O)Nc2ccc3nc(SCC(=O)N4CCCC4)sc3c2)nnc1-c1ccc(N)cc1,"inconclusive [inhibitor, full curve, poor fit]",
CCN1CCN(C(c2ccc(F)cc2)c2nnnn2Cc2cccs2)CC1 (stereo not drawn),"inconclusive [inhibitor, full curve, poor fit]",
N#C/C(=C\c1c(N2CCOCC2)nc2ccccn2c1=O)C(=O)NC1CCS(=O)(=O)C1 (stereo not drawn),"inconclusive [activator, partial curve]",
O=C(O)CCc1ccc(S(=O)(=O)N2CCOCC2)cc1,"inconclusive [inhibitor, partial curve]",
Cc1cc(=O)oc2c(CN3CCCCC3)c(O)c(Cl)cc12,"inconclusive [activator, partial curve]",
COC(=O)C1=C(C(=O)OC)[C@@H]2N(C)c3ccc(OC)cc3[C@@]23C[C@@H](C(=O)OC)N(S(=O)(=O)c2c(C)noc2C)C3=N1,,inactive: 8.55% [at 17.4 µM]
CCNc1ncc2nc(C)c(=O)n(CCC#N)c2n1,"inconclusive [activator, partial curve]",
COc1cccc(Nc2nc(-c3cccc(N4C(=O)c5ccccc5C4=O)c3)cs2)c1,,inactive: -13.4%
COc1ccccc1/C=C/CN1CCCC(CO)(Cc2cccc(Cl)c2)C1 (stereo not drawn),"inconclusive [inhibitor, partial curve, poor fit]",
O=C1CC(N(O)c2ccccc2)C(=O)N1c1ccc(Cl)c(Cl)c1 (stereo not drawn),,inactive: -8.5%

Compound,Potency,"activity change, negative = inhibition"
CC#CCN1c2ccccc2[C@]23C[C@@H](C(=O)OC)N(S(=O)(=O)c4ccc5c(c4)OCCN5C)C2=NC(C(=O)OC)=C(C(=O)OC)[C@H]13,,inactive: -10.1% [at 17.4 µM]
CCCCc1cc(=O)oc2c(CN3CCCC3)c(O)ccc12,"inconclusive [activator, partial curve]",
CC(=O)Oc1ccc2c(c1)Oc1cc(OC(C)=O)ccc1C21OC(=O)c2ccccc21,,inactive: -0.436%
COc1ccccc1[C@H]1C(c2cccc(Cl)c2)=NN(c2ccccc2)[C@@H]1CO,"inconclusive [activator, partial curve]",
CCOCCCn1c(=NC(C)=O)c(C#N)cc2c(=O)n3ccccc3nc21,"inconclusive [activator, partial curve]",
C=CCn1c(-c2cccs2)nc2nc3ccccc3nc21,"inconclusive [activator, partial curve]",
CC[C@H](C)[C@H](NC(=O)[C@H](Cc1ccc(O)cc1)NC(=O)[C@@H](NC(=O)[C@H](CCCN=C(N)N)NC(=O)[C@@H](N)CC(=O)O)C(C)C)C(=O)N[C@@H](Cc1cnc[nH]1)C(=O)N1CCC[C@H]1C(=O)N[C@@H](Cc1ccccc1)C(=O)N[C@@H](Cc1cnc[nH]1)C(=O)N[C@@H](CC(C)C)C(=O)O,,inactive: -1.21%
Cc1ccc(S(=O)(=O)c2c(N)n(CCCO)c3nc4ccccc4nc23)cc1,"inconclusive [activator, single point]",
COc1ccc(CC(=O)O/N=C(\N)Cc2ccc(OC)c(OC)c2)cc1,"inconclusive [inhibitor, full curve, poor fit]",
c1ccc(CN2c3ccccc3-c3nc4ccccc4n3C2c2ccccn2)cc1 (stereo not drawn),"inconclusive [activator, single point]",
CCN1CCN(c2cc3c(nn2)Oc2ccccc2N3C)CC1,"inconclusive [activator, partial curve]",
O=[N+]([O-])c1ccc2nc(-[n+]3c(-c4ccccc4)cc(-c4ccccc4)cc3-c3ccccc3)[nH]c2c1,"inconclusive [inhibitor, partial curve, poor fit]",
COc1ccccc1C(=O)Nc1ccc(C)cc1C(=O)c1ccccc1,"inconclusive [inhibitor, single point]",
N#Cc1c(N)n(-c2cccc(C(=O)O)c2)c2nc3ccccc3nc12,"inconclusive [activator, partial curve]",
COC(=O)c1c(N)n(CCCN2CCOCC2)c2nc3ccccc3nc12,"inconclusive [activator, partial curve]",
COc1ccccc1C1CC(c2ccco2)=NN1c1ccccc1 (stereo not drawn),"inconclusive [activator, single point]",
CC1CCCN(CCCNC(=O)c2coc3nc4ccccc4nc23)C1 (stereo not drawn),"inconclusive [activator, partial curve]",
COC(=O)c1ccc2c(=O)n(CCCCCC(=O)N3CCN(c4ccc(F)cc4)CC3)c(=O)[nH]c2c1,,inactive: 9.77%
Cc1cc(=O)oc2cc(OC(C)C(=O)Nc3ccc(N4CCOCC4)cc3)ccc12 (stereo not drawn),"inconclusive [inhibitor, full curve, poor fit]",
